Results taken from the supplement of paper PMC11417369.
± gives the standard deviation of the averaged measurements. The list shows a part of the results.

test system: PfAP2-I AP2 domain 3 (GST-tagged); test: gcPBM binding intensity (ln(normalized median fluorescence intensity)); higher = stronger DNA binding
Outline: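 Probes on an Agilent 4 × 180k array were primer-extended, double-stranded and 36 bp long, taken from intergenic genomic regions, with negative controls added. GST-tagged P. falciparum DNA-binding domains from E. coli, about 25 μg on average, were applied to the array for 1 h in 1× PBS containing 1% milk, 0.2 mg/ml BSA, 0.5% salmon testes DNA and 0.03% Triton X-100. Binding intensity, obtained after Alexa488 anti-GST antibody detection and a 488 nm scan, is the highest Masliner-normalised natural-log median intensity across replicate spots of either probe orientation.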

Row | Sequence | gcPBM binding intensity (ln)
1 | ATAATAATATTATTTTGTACATATGTGCTTATTTAT [XGTACX_site5540] | 8.375 ± 0.035
2 | AGTAATAAGTAATTTACACACATATTATAGCATCAC [CACACA_site6971] | 7.7 ± 0.5
3 | TTTTGTCAACATTTTTATATTAGGTCTTGAACGATT [GTGCAC_negctrl_site72] | 7.59 ± 0.61
4 | GTATAATTTAAAAAGTGTACATAAAGTTTTTATTAA [XGTACX_site1090] | 7.92 ± 0.24
5 | ATATATATGGTCATTTGTACATATCGTGAGAGCTGC [XGTACX_site4117] | 7.82 ± 0.67
6 | ATATAACATAATGGATGTACATGTATAAATATAAAA [XGTACX_site8228] | 8.19 ± 0.54
7 | AGAATCACCAAATATGTACACACCTTAACATGTTTA [CACACA_site2068] | 8.06 ± 0.64
8 | TATATTATAAATTAATGTACGTAATTTTTTTTTTTT [XGTACX_site2500] | 7.64 ± 0.21
9 | TTTTTTTTTTACTTCACACATATACATTTATATTTA [CACACA_site4385] | 8.14 ± 0.67
10 | TAAACATACAGATACACACACACACCCACAGAGACA [CACACA_site4429] | 8.24 ± 0.28
11 | TAAATGTGTATATATTGTACAAATATTAATACATAC [XGTACX_site8102] | 7.91 ± 0.27
12 | AAATTGTTAAAAAGAAGTACATTCTTTTATTTCTTA [XGTACX_site540] | 7.5 ± 0.4
13 | AAAGAACTTAATGCTGCACACAAAAAAAAGGAAAAA [CACACA_site8375] | 8.84
14 | ATAATGAAGACTTTTTTACACACTTCATATATTATA [CACACA_site8630] | 8.1 ± 0.54
15 | TGATATTTTTCCATAGTGCAAAATATAGTAATGTAT | 10.4 ± 0.3
16 | TTACATACATACAAGTGTACGCATATATTAATATTA [XGTACX_site4006] | 8 ± 0.26
17 | TTTAACATTTCAGATGTGCACATTTTCCGAACCAGT | 9.865 ± 0.021
18 | ATATGTACAAGTTATACACACATGTACAGTTATATA [CACACA_site6706] | 7.98 ± 0.38
19 | AGAACGACTAAGCAGTGTACATTTTGTATATACAAT [XGTACX_site2831] | 7.67 ± 0.59

Row | Sequence | gcPBM binding intensity (ln)
20 | ATGAATATAAAATATACACACTTATATATTGAATGA [CACACA_site4274] | 7.37 ± 0.61
21 | GTTAATTCATTAAGGACACACAAAAAAAAAAAAAAA [CACACA_site998] | 8.06 ± 0.67
22 | GATTAAATTTGACACTGTACAAAAAATAAAATGAGG [XGTACX_site504] | 8.2 ± 0.45
23 | AGTATACATATATATACACACACATATATATATATA [CACACA_site7883] | 9.43 ± 0.35
24 | CTTATATGAAGCCTCTTTATTCATAAATAAGAATAA [TGCATGCA_negctrl_site120] | 7.38 ± 0.39
25 | CCAACATAGAGGGGCACACACATATATACATAAAAA [CACACA_site1847] | 8.4 ± 0.21
26 | TTAACAAAATTTCCGTGTACGTAAATAAGAACATAG [XGTACX_site7200] | 8.36 ± 0.16
27 | AAACAACATGGACACGCACACACAAAAAAAGCATGC [CACACA_site73] | 8.15 ± 0.42
28 | ACAAACTAAAAAAGAAGTACAAATCGTATTAATAAT [XGTACX_site8684] | 7.81 ± 0.44
29 | TTTTTTGAAAATAAAAGTACAAATTTTATATTTAAA [XGTACX_site2758] | 7.65 ± 0.14
30 | AGAAAAAAACGGTACAGTACACATAAACTAATTATT [XGTACX_site8617] | 7.83 ± 0.59
31 | TATTATATATGGAAGTAATAATATATATATATATAT [GTGCAC_negctrl_site63] | 9.04 ± 0.099
32 | TTATGTCGTAAATACACACATACATATACATACACA [CACACA_site1374] | 7.86 ± 0.54
33 | TTGTCACTAATAGATGCATGCAATCATTCCATTTTT [TGCATGCA_site938] | 7.67 ± 0.9
34 | AATAAATTGAAACACACACACACATATATATATATA [CACACA_site848] | 9.39 ± 0.23
35 | TTGTAATGATATATTTGTACTTAATATAATTGTATA [XGTACX_site2748] | 7.67 ± 0.17
36 | GTTACATACCTATACACACACATATATAAATAAATA [CACACA_site6549] | 8.3 ± 0.3
37 | TAACAAAACATAGATTGTACATATTATAAATGTATA [XGTACX_site1543] | 7.6 ± 0.23
38 | CAATATTATATTACTTGTACACATATGTAGTTTCGA [XGTACX_site8945] | 7.83 ± 0.33

Row | Sequence | gcPBM binding intensity (ln)
39 | TTTCCCATAGGAAAAACACACATATATTATATATAA [CACACA_site1981] | 7.44 ± 0.48
40 | CAAAATATACACACGTGTACACAAATATTTACAAAA [XGTACX_site2257] | 8.36 ± 0.33
41 | ATATAAAAATACAGGTGTACATTTTTTCATATTTAT [XGTACX_site6959] | 7.76 ± 0.54
42 | TATTCTTATCTTACCACACACAATGTACGAAAAGAT [CACACA_site6296] | 8.2 ± 0.31
43 | ATCATTTTTTATGCGTGTACATAAATTTATTAGGTT [XGTACX_site2786] | 8.15 ± 0.6
44 | TTTTTTGTTAAACCGGTGCATATAAATATATATATA [GTGCAC_site9989] | 10.8 ± 0.26
45 | TAATTATTACACGGTATTATATATAATATGTTAAAA [GTGCAC_negctrl_site134] | 8.04 ± 0.42
46 | CACAAAAAAGTTCATACACACAACATATTTATATAT [CACACA_site2887] | 7.61 ± 0.45
47 | ATATCTATATTTTAAAGTACGTAGTAAAAAGAAAAA [XGTACX_site4323] | 8.12 ± 0.47
48 | TTTTTTTTTTTTCTGTGTACATATATAATATATATA [XGTACX_site1592] | 8.21 ± 0.52
49 | TTTTATGAAAAGATGAGTACACAATACTTTTTAATT [XGTACX_site8253] | 7.79 ± 0.28
50 | TGCATGTAATTTTTGTGTCCACATAAAATATTTAAT [XGTACX_site5652] | 8.02 ± 0.31
51 | TTCTATATATTATATGCATGTAAAACATATTAAAAT [TGCATGCA_site662] | 7.93 ± 0.61
52 | TTTTTATGAAAATAAACACACGATTTATTATATATA [CACACA_site1311] | 7.62 ± 0.4
53 | TTTTTCAATTGTAGTGGTACAGATATAATTATCTCT [XGTACX_site5500] | 7.8 ± 0.57
54 | ATGTACTATGATAATGCATGCAATAATACATTTTTA [TGCATGCA_site318] | 7.95 ± 0.67
55 | TTATTATGTATATATGCACACAATACCCAAAACAAC [CACACA_site80] | 9.365 ± 0.035
56 | TAATATATATATAATACACACTATTTTAATCACATA [CACACA_site4849] | 7.71 ± 0.59
57 | TTTATTGCTCTATATGCACACCTTAATTCTTCATTT [CACACA_site8682] | 9.86 ± 0.11
